Measurements published in article PMC4336329 (PLoS ONE, 2015).
The whole screen tested about 310,000 compounds, of which about 14,000 (4.5%) showed an effect of 50% or more. The effect is printed as a negative number. The list shows a part of the results.
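Further: peak tail current of the secondary pulse compared with the same well before compound.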

What follows are molecules tested against human ether-à-go-go-related gene (hERG) potassium channel (human, UniProt Q12809) (assay: primary screen, population patch clamp on CHO cells stably expressing hERG).
human ether-à-go-go-related gene (hERG) potassium channel, sequence (Q12809 whole entry, looked up): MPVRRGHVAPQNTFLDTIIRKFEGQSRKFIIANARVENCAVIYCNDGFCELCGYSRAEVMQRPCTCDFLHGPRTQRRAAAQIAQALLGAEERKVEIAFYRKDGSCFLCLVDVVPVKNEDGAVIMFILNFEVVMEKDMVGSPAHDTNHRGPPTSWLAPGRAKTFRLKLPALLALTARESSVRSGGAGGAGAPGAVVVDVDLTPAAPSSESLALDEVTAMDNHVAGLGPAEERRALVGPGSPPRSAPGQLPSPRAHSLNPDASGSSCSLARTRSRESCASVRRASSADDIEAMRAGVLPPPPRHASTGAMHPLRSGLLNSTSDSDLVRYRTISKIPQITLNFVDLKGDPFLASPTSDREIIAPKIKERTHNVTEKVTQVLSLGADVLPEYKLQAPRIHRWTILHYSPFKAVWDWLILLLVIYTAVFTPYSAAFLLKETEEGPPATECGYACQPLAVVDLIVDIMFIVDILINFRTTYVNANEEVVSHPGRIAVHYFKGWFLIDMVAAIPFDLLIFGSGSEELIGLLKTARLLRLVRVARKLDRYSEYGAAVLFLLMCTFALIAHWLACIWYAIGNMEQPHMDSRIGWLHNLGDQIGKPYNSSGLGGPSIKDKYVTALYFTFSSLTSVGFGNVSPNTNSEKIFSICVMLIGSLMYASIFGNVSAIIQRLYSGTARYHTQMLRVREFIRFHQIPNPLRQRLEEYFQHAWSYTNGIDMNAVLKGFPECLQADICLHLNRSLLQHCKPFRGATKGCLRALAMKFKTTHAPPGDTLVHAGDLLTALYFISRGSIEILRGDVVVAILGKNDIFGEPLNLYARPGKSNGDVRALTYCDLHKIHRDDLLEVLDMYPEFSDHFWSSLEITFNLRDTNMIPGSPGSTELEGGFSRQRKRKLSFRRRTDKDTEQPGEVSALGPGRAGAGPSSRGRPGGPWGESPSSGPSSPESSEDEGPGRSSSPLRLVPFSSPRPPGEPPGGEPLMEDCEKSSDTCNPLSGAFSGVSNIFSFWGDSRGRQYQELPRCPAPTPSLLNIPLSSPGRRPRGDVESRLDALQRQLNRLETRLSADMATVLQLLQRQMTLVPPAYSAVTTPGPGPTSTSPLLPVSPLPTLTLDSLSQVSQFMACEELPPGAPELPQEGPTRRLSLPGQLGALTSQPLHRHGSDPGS
In the case of `Cc1ccc(NC2=NCC(=O)N2Cc2ccccc2)c(C)c1`, the “hERG current change (%, negative = inhibition) at 10uM” value is reported as 2.18%. With `Cc1cccc(NC(=S)N2CCN(C(=O)c3ccco3)CC2)c1C` the “hERG current change (%, negative = inhibition) at 10uM” value was 14.9%. `CCOC(=O)C(O)(c1ccc(N(CC)C(=O)COc2ccccc2)cc1)C(F)(F)F` (centres unmarked) was tested, and the “hERG current change (%, negative = inhibition) at 10uM” value was -13.8%. For `CS(=O)(=O)O/N=C1\CCCCC1c1ccc([N+](=O)[O-])cc1[N+](=O)[O-]` (centres unmarked), the “hERG current change (%, negative = inhibition) at 10uM” value was -14%. For `CN(C)CCOC(=O)c1cccc(Br)c1.Cl`, the “hERG current change (%, negative = inhibition) at 10uM” value was -12.8%. With `COC(=O)c1cc(S(=O)(=O)NCC2CCN(Cc3ccc(C)cc3)CC2)c[nH]1` the “hERG current change (%, negative = inhibition) at 10uM” value was -73.8%. For `O=c1cc(-c2ccc(F)cc2F)[nH]c2ccccc12`, the “hERG current change (%, negative = inhibition) at 10uM” value was -0.184%. For `O=C(CCCn1c(=S)[nH]c2ccc(Br)cc2c1=O)NCc1ccccn1`, the “hERG current change (%, negative = inhibition) at 10uM” value was 12.9%. `Cc1ccc(C(=O)c2ccc([N+](=O)[O-])cc2)cc1C` was tested, and the “hERG current change (%, negative = inhibition) at 10uM” value was 7.38%. `C=CCOc1ccc(C2C(C#N)=C(N)N(Nc3ccccc3)C3=C2C(=O)CCC3)cc1OC` (centres unmarked) was tested, and the “hERG current change (%, negative = inhibition) at 10uM” value was -19.4%. `CCC1Sc2ccc(S(=O)(=O)Nc3ccc(OC)cc3)cc2NC1=O` (centres unmarked) was tested, and the “hERG current change (%, negative = inhibition) at 10uM” value was 10.3%. For `COc1ccccc1-c1noc(-c2cc(OC)c(OC)c(OC)c2)n1`, the “hERG current change (%, negative = inhibition) at 10uM” value was 5.28%. With `CCOc1ccc(NC(=O)C(=O)NCCN2CCN(S(=O)(=O)c3ccccc3)CC2)cc1` the “hERG current change (%, negative = inhibition) at 10uM” value was -8.75%. `Cl.N=c1sccn1CC(=O)Nc1ccc(S(N)(=O)=O)cc1` was tested, and the “hERG current change (%, negative = inhibition) at 10uM” value was 18.2%. `COc1ccccc1CCNC(=O)C(=O)NCC1OCCCN1S(=O)(=O)c1cc(C)ccc1C` (centres unmarked) was tested, and the “hERG current change (%, negative = inhibition) at 10uM” value was -9.51%. `CCOc1ccccc1NC(=O)c1ccc(Cl)c(NC(=O)CC(c2ccccc2)c2ccccc2)c1` was tested, and the “hERG current change (%, negative = inhibition) at 10uM” value was 2.16%. With `COc1cccc(OCCNCc2ccccc2)c1.O=C(O)C(=O)O` the “hERG current change (%, negative = inhibition) at 10uM” value was 2.51%. `COc1ccccc1-c1cn[nH]c(=S)n1` was tested, and the “hERG current change (%, negative = inhibition) at 10uM” value was 20.1%. In the case of `Cc1ccc(C(=O)N/C(=C/c2ccco2)C(=O)NC2CCS(=O)(=O)C2)cc1` (centres unmarked), the “hERG current change (%, negative = inhibition) at 10uM” value is reported as 16%. With `O=C(NNC(=O)c1cccc(Br)c1)Nc1ccc(Cl)cc1` the “hERG current change (%, negative = inhibition) at 10uM” value was 18.9%. In the case of `CCOC(=O)CN1C(=O)/C(=C/c2cccc(Br)c2)Oc2ccccc21`, the “hERG current change (%, negative = inhibition) at 10uM” value is reported as 14.7%. For `Nc1ncnc2c1ncn2CCNCCc1ccccc1`, the “hERG current change (%, negative = inhibition) at 10uM” value was -32.9%. With `Cc1nn(-c2ccccc2)c(C)c1NC(=O)COC(=O)CCOc1ccccc1` the “hERG current change (%, negative = inhibition) at 10uM” value was -9.75%. For `Cc1ccc(C(=O)NC(C)C2CC3CCC2C3)cc1` (centres unmarked), the “hERG current change (%, negative = inhibition) at 10uM” value was 19.1%. For `CCc1ccc(N2C(=O)NC(=O)/C(=C/c3cccn3CCOc3ccc(C(C)CC)cc3)C2=O)cc1` (centres unmarked), the “hERG current change (%, negative = inhibition) at 10uM” value was 7.9%. In the case of `O=C(CNS(=O)(=O)c1ccc(Br)s1)NCc1ccccc1`, the “hERG current change (%, negative = inhibition) at 10uM” value is reported as 14.5%. With `Cc1c(Cl)c(C(=O)N2CCCCCC2)nn1C` the “hERG current change (%, negative = inhibition) at 10uM” value was 14.1%. In the case of `O=CNNC(=O)c1cccc([N+](=O)[O-])c1`, the “hERG current change (%, negative = inhibition) at 10uM” value is reported as 19.7%. `COc1cccc(Cl)c1NC(=O)N1CCN(c2cc(C)nc3ccccc23)CC1` was tested, and the “hERG current change (%, negative = inhibition) at 10uM” value was -75.3%. For `CC(Oc1ccc2c(c1)oc(=O)c1ccccc12)C(=O)NC(Cc1c[nH]c2ccc(O)cc12)C(=O)O` (centres unmarked), the “hERG current change (%, negative = inhibition) at 10uM” value was 16.6%. For `O=C(CCSc1ccccc1)NCCSc1ccccn1`, the “hERG current change (%, negative = inhibition) at 10uM” value was -0.175%. For `CCN(C(=O)COC(=O)c1[nH]c(=O)[nH]c(=O)c1N)c1ccccc1`, the “hERG current change (%, negative = inhibition) at 10uM” value was 36.4%. In the case of `CN(C)c1ccc(-c2cccc(C3CC=CC4C3C(=O)N(Cc3ccccc3)C4c3ccc(C(F)(F)F)cc3)c2)cc1` (centres unmarked), the “hERG current change (%, negative = inhibition) at 10uM” value is reported as 20.1%. For `CCCC(=O)Nc1nc(C)c(-c2csc(Nc3ccccc3C)n2)s1`, the “hERG current change (%, negative = inhibition) at 10uM” value was 13%. For `CCCn1c(SCC(=O)c2ccc3c(c2)OCCO3)nnc1C(C)C`, the “hERG current change (%, negative = inhibition) at 10uM” value was -14.4%. For `CN(Cc1ccccc1)S(=O)(=O)c1ccc(NC(=S)NC(=O)C2CCCC2)cc1`, the “hERG current change (%, negative = inhibition) at 10uM” value was 24.6%. `COc1ccc(OCC(=O)Nc2ccccc2N2CCN(C)CC2)cc1` was tested, and the “hERG current change (%, negative = inhibition) at 10uM” value was -38.6%. `O=C(CSc1ncnc2nc[nH]c12)c1ccc(Cl)cc1` was tested, and the “hERG current change (%, negative = inhibition) at 10uM” value was 4.11%. `CCCNC(=O)Cn1cnc2sc(C(=O)N3CCN(Cc4ccc5c(c4)OCO5)CC3)c(C)c2c1=O` was tested, and the “hERG current change (%, negative = inhibition) at 10uM” value was -7.68%. `COc1ccc(OCC(=O)NNC(=O)c2cccc(S(=O)(=O)N(C)C)c2)cc1` was tested, and the “hERG current change (%, negative = inhibition) at 10uM” value was 7.55%. With `Cc1ccc(C(=O)CSc2nc(N)cc(=O)[nH]2)cc1C` the “hERG current change (%, negative = inhibition) at 10uM” value was 1.17%. In the case of `COc1ccc(/C=N/Nc2nonc2N)cc1OC`, the “hERG current change (%, negative = inhibition) at 10uM” value is reported as -0.416%. For `S=c1nc(-c2ccccc2Cl)n(Cc2cccnc2)c2c1CCCC2`, the “hERG current change (%, negative = inhibition) at 10uM” value was 11.2%. For `COc1ccc(CCNC(=O)C2CCC(=O)N2Cc2ccccc2Cl)cc1OC` (centres unmarked), the “hERG current change (%, negative = inhibition) at 10uM” value was 12.6%. For `Fc1ccc(N2CCN(c3cnc4ccccc4n3)CC2)cc1`, the “hERG current change (%, negative = inhibition) at 10uM” value was 6.24%. `COc1ccc(C(C)=O)cc1COc1cccnc1[N+](=O)[O-]` was tested, and the “hERG current change (%, negative = inhibition) at 10uM” value was 3.06%. `CC(=O)Nc1ccc(S(=O)(=O)N(CCc2ccccc2)CC(=O)N/N=C/c2ccc(C(=O)O)cc2)cc1` was tested, and the “hERG current change (%, negative = inhibition) at 10uM” value was 21.6%. For `NC(=O)c1cccc(-c2cc(Nc3ccc(OC(F)(F)F)cc3)ncn2)c1`, the “hERG current change (%, negative = inhibition) at 10uM” value was -4.81%. `CCC(CC)NC(=O)c1ccc2c(c1)OCCO2` was tested, and the “hERG current change (%, negative = inhibition) at 10uM” value was 7.58%. In the case of `COc1ccc(C(C)C)cc1S(=O)(=O)NC1CCCC1`, the “hERG current change (%, negative = inhibition) at 10uM” value is reported as 15.2%. With `Cc1cccc(N2CCN(C(=O)c3cccc(N4C(=O)C5CC=CC(C)C5C4=O)c3)CC2)c1C` (centres unmarked) the “hERG current change (%, negative = inhibition) at 10uM” value was -12.5%. With `O=C(O)c1cnn2c(-c3ccc(F)cc3)ccnc12` the “hERG current change (%, negative = inhibition) at 10uM” value was 21.7%. In the case of `CCOc1cc(C=O)ccc1OCC(=O)NC(C)(C)C`, the “hERG current change (%, negative = inhibition) at 10uM” value is reported as 13.8%. With `O=C(CCCN1C(=O)S/C(=C/c2ccccc2)C1=S)Nc1ccc(C(=O)O)cc1` the “hERG current change (%, negative = inhibition) at 10uM” value was 4.33%. For `Cc1ccc(C)c(Nc2nc(-c3cccnc3)cs2)c1`, the “hERG current change (%, negative = inhibition) at 10uM” value was 3.66%. With `Cc1noc(C)c1S(=O)(=O)NCCN1CCN(c2ccccc2)CC1` the “hERG current change (%, negative = inhibition) at 10uM” value was -2.02%.
